{"source": "paper PMC12136788", "binders": {"B1": {"name": "chrX:9032958:9033121:-|CDS|ENSG00000177138|control|control|control (ssRNA)", "RNA": "GGGAGUUCUACAGUCCGACGAUCCCAGGUUUCCUUAGCUUCCUUAGUGUGUCUUUGCGCUCACCAGGUUCGGGGAUCGCCUCUAGCUUCCCAGGACAACCAGCCACGGAUCCUGUGGGCAGGAGGGCUGCCAAGGCCCAGUUGCAACAGAGGAUUGAGCAUCA"}, "B2": {"name": "chr22:38485951:38486139:-|CDS|ENSG00000100201|unk|total|mutant (ssRNA)", "RNA": "GGGAGUUCUACAGUCCGACGAUCCCGCCGCACCACCUCAACUGGGAGAAGUUCACAGAGCUCCCGCCAGCAGUUCCGUGGGACCGGCCGGUCUGGGCAGCAGCCACAGCCACUGAUGUCACAACAGUUUGCACAGCCUCCGGGCAACAGAGGAUUGAGCAUCA"}, "B3": {"name": "chr6:116593178:116593279:+|3pUTR|ENSG00000111832|unk|total|mutant (ssRNA)", "RNA": "GGGAGUUCUACAGUCCGACGAUCUAUGAUUUUCCUUUCUUUUUUUCUAAGAAAAAAUUAUUUUCAGGAGAAUAUUCUUCUGACCGCUUUCAUCAUUGAACUUAAUAAACUGACCUUAAAAUUUCAAAUAUAAAAUGUUCAAGGCAACAGAGGAUUGAGCAUCA"}, "B4": {"name": "chr12:7729382:7729740:-|three_prime_utr|ENSG00000198178|control|control|control (ssRNA)", "RNA": "GGGAGUUCUACAGUCCGACGAUCAUCUACAUAUAAAUGAAAUAUUCUCCCUGGAAAUGUGUUUGGGUUGGCAUCCACCGUUGUAGAAAGCUAAAUUGAUUUUUUAAUUUAUGUGUAAGUUUUGUACAAGGAAUGCCCCUAAAACAACAGAGGAUUGAGCAUCA"}, "B5": {"name": "chr16:46956839:46956924:-|3pUTR|ENSG00000069345|msi1_unk|total|mutant (ssRNA)", "RNA": "GGGAGUUCUACAGUCCGACGAUCAUCAAUCCAGAUGAACUGAGGGACAUCUGUUGGUCUAUGUAUAACUUUUAAAAUUGGUACCGUAUCUACAGAGUGUAUAAUUUAAACUAACCACAAAGCUUUACAUCUUCAUUUUGACUGCAACAGAGGAUUGAGCAUCA"}, "B6": {"name": "chrX:53645320:53645442:-|CDS|ENSG00000086758|unk|total|mutant (ssRNA)", "RNA": "GGGAGUUCUACAGUCCGACGAUCUUAUUGGCUUCCUCUGAUAUGCAAGUGGUGCUGGCAGUCCUCAAUCUCCUAUAUGUAUUCCGCAAAAGAUCAAACUACAUCACUCGUCUGGGAUCUGACAAGAGGACCCCGCUGCUAACUCAACAGAGGAUUGAGCAUCA"}}, "note": "This is one part of the list."}
{"molecular_target": "T1, UNK ZnF1-6 (called full-length) (human, UniProt Q9C0B0 30-357)", "T1 sequence": "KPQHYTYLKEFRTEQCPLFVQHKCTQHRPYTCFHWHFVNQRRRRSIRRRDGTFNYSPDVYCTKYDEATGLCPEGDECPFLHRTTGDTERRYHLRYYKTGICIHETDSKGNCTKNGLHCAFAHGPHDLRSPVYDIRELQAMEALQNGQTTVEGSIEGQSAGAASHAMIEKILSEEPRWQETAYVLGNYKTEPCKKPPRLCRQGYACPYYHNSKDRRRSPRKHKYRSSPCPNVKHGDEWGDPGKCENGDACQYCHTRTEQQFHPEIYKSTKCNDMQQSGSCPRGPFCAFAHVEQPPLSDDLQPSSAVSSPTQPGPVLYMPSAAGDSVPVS", "test": "nsRBNS (natural sequence RNA bind-n-seq); RBNS binding buffer (assumed for nsRBNS): 25 mM Tris pH 7.5, 150 mM KCl, 3 mM MgCl2, 0.01% Triton X-100, 500 ug/ml BSA, 20 U/ml SUPERase-In, 4 C; UNK is unkempt and MSI1 is Musashi-1; names of the RNAs are library labels; protein concentration not given here; high values mean tight binding", "units": {"binding signal": "enrichment R"}}
{"binder": "B1", "binding signal": 1.37}
{"binder": "B2", "binding signal": 0.713}
{"binder": "B3", "binding signal": 0.574}
{"binder": "B4", "binding signal": 0.623}
{"binder": "B5", "binding signal": 0.758}
{"binder": "B6", "binding signal": 0.566}
